Results published in US10239825B2, “Ketamine derivatives” (Auckland Uniservices Limited, priority 2013, dated 2019).
Some of these results come from one statement about several compounds together. Some ranges recur; such a range may be that of the whole group of compounds.

System: adult female Sprague-Dawley rats
Test: rat infusion study: loss/recovery of righting reflex and walk (anaesthetic effect)
Type: in vivo
Settings: for dose-potency, fold less dose-potent than ketamine: rat infusion study; for recovery, fold faster than ketamine: after discontinuation of infusion
Protocol: All animal experiments were conducted at the Ruakura Research Centre, Hamilton, New Zealand, using experimental protocols reviewed and approved by the Ruakura Animal Ethics Committee (ethics ref 12604).
Following acquisition of baseline physiologic parameters (heart rate, respiratory rate, PWR, and righting reflex (RR)) adult female Sprague-Dawley rats of approximately 350-450 g were put under non-traumatic restraint and the marginal vein of the tail was cannulated. Ketamine or a compound of the invention at 10 mg/ml was administered via a minibore extension tube adequately secured to the tail. Infusions were commenced at a rate (weight-adjusted) to deliver 20 mg/kg/min initially (until the pedal withdrawal reflex score PWR=1), then were reduced to a rate of 6.7 mg/kg/min. Infusion rate was then titrated in an up-and-down fashion to maintain dorsal recumbency and a PWR=1 to 10 minutes before cessation. Three rats were used in each study, with each group of rats also acting as their own ketamine control. The order of study drug administration was determined by prior odds/evens randomisation with a recovery interval of at least one hour afforded between experiments. PWR and RR were recorded at 1 minute intervals throughout. The times from cessation of infusion to return of righting reflex (RRR), and from cessation of infusion to the animals displaying independent locomotion (walk) were recorded.
Loss of Righting Reflex (LRR):
This is primarily used to assess anaesthetic hypnotic effect. Righting reflex is judged absent when the rat fails to right from a position of dorsal recumbency to a position of sternal recumbency on three attempts performed in rapid succession. Dose to LRR is termed effective potency.

Row | Structure (SMILES) | dose-potency, fold less dose-potent than ketamine | recovery, fold faster than ketamine
1 | CCOC(=O)CCCCNC1(c2ccccc2Cl)CCCCC1=O.Cl (racemic) [rac-C4Et, Rac-Ethyl 5-((1-(2-chlorophenyl)-2-oxocyclohexyl)amino)pentanoate hydrochloride] | up to 2 fold | –
2 | CCCOC(=O)CCNC1(c2ccccc2Cl)CCCCC1=O.Cl (racemic) [rac-C2nPr, N-Propyl 3-((1-(2-chlorophenyl)-2-oxocyclohexyl)amino)propanoate Hydrochloride] | 2-6 fold | 20-25 fold
3 | CCOC(=O)CCCNC1(c2ccccc2Cl)CCCCC1=O.Cl (racemic) [rac-C3Et, Ethyl 4-((1-(2-chlorophenyl)-2-oxocyclohexyl)amino)butanoate Hydrochloride] | up to 2 fold | –
4 | CC(C)OC(=O)CCCNC1(c2ccccc2Cl)CCCCC1=O.Cl (racemic) [rac-C3iPr, Isopropyl 4-((1-(2-chlorophenyl)-2-oxocyclohexyl)amino)butanoate hydrochloride] | up to 2 fold | –
5 | CC(C)OC(=O)CCCCNC1(c2ccccc2Cl)CCCCC1=O.Cl (racemic) [rac-C4iPr, Isopropyl 5-((1-(2-chlorophenyl)-2-oxocyclohexyl)amino)pentanoate Hydrochloride] | up to 2 fold | –
6 | COC(=O)CCCCNC1(c2ccccc2Cl)CCCCC1=O.Cl (racemic) [rac-C4Me, Rac-Methyl 5-((1-(2-chlorophenyl)-2-oxocyclohexyl)amino)pentanoate Hydrochloride] | up to 2 fold | –
7 | CCOC(=O)CCNC1(c2ccccc2Cl)CCCCC1=O.Cl (racemic) [rac-C2Et, Ethyl 3-((1-(2-chlorophenyl)-2-oxocyclohexyl)amino)propanoate Hydrochloride] | up to 2 fold | –
8 | CC(C)OC(=O)CCNC1(c2ccccc2Cl)CCCCC1=O.Cl (racemic) [rac-C2iPr, Iso-Propyl 3-((1-(2-chlorophenyl)-2-oxocyclohexyl)amino)propanoate Hydrochloride] | up to 2 fold | –
9 | CCCOC(=O)CCCCNC1(c2ccccc2Cl)CCCCC1=O.Cl (racemic) [rac-C4nPr, N-Propyl 5-((1-(2-chlorophenyl)-2-oxocyclohexyl)amino)pentanoate Hydrochloride] | 2-6 fold | 20-25 fold
10 | CCCOC(=O)CCCNC1(c2ccccc2Cl)CCCCC1=O.Cl (racemic) [rac-C3nPr, N-Propyl 4-((1-(2-chlorophenyl)-2-oxocyclohexyl)amino)butanoate Hydrochloride] | 2-6 fold | 20-25 fold
